Results taken from publication PMC12292926.
These are yes or no findings as the source states them, for the method shown. In cells and extracts the contact can be indirect. Some entries that bind do so weakly or less than the wild type.

The chains behind the UniProt entries cited, without tags or fusion partners. Where a name states a change or a piece, a line headed by the entry shows the natural chain unless it says otherwise. Residues count along the entry.
UniProt Q8IZL8: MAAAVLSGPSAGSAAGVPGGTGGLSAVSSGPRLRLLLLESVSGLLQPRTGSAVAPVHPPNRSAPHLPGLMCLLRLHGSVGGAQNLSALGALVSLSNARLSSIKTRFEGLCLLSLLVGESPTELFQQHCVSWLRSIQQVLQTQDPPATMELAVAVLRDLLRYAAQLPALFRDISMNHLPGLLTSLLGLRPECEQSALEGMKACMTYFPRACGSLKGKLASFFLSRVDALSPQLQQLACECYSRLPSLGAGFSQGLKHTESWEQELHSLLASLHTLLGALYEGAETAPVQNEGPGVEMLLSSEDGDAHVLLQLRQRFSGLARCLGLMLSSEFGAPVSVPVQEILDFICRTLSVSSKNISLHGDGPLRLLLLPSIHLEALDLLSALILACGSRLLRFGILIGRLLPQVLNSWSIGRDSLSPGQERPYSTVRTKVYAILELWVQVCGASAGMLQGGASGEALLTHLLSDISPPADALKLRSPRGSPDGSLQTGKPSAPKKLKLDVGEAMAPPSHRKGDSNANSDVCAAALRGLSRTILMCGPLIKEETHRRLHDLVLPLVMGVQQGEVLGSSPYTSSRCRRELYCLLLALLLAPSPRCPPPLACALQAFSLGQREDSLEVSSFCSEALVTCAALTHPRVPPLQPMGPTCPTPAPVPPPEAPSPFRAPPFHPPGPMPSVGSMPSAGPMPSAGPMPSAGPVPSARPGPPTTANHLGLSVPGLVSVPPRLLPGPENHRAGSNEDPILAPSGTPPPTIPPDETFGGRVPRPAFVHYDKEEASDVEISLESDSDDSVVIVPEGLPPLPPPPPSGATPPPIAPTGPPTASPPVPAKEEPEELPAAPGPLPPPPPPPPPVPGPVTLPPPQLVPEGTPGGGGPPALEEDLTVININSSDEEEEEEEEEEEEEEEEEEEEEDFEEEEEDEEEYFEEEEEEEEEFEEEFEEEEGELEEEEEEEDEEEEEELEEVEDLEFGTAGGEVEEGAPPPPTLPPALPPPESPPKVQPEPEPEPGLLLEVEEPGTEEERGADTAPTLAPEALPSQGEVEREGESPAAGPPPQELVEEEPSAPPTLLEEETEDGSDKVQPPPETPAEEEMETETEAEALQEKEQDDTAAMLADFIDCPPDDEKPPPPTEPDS
UniProt Q9H4L4, residues 303-574: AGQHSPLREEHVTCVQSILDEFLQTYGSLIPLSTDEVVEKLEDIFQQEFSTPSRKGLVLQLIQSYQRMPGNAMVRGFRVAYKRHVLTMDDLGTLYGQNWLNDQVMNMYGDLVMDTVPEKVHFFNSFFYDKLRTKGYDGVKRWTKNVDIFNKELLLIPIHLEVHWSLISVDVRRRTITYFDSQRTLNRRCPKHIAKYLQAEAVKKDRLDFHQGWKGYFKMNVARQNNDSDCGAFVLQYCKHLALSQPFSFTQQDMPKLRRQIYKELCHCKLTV

Tests used:
[1] = target: PELP1, wild type, C-terminal FLAG tag (human) (UniProt Q8IZL8); assay: co-IP; anti-FLAG M2 affinity gel; FLAG-tagged PELP1 variants as bait, exogenous rixosome subunits co-transfected in HEK293FT; lysis in 50 mM Hepes pH 7.5, 200 mM NaCl, 5 mM MgCl2, 10% glycerol, 0.5% NP-40, 1 mM DTT, 4°C; SDS-PAGE and Western blot
[2] = target: PELP1 K826R (SUMOylation site lysine 826 to arginine) (human) (UniProt Q8IZL8); assay: as above
[3] = target: SENP3 SUMO protease domain (residues 303 to 574), N-terminal FLAG tag (human) (UniProt Q9H4L4); assay: co-IP; anti-FLAG M2 affinity gel; N-terminally FLAG-tagged SENP3 truncations as bait, exogenous rixosome co-transfected in HEK293FT; Western blot

Measured: binding

B1: TEX10, co-expressed rixosome subunit found with PELP1 or SENP3 baits (protein, UniProt Q9NXF1 1-929)
chain: MTKKRKRQHDFQKVKLKVGKKKPKLQNATPTNFKTKTIHLPEQLKEDGTLPTNNRKLNIKDLLSQMHHYNAGVKQSALLGLKDLLSQYPFIIDAHLSNILSEVTAVFTDKDANVRLAAVQLLQFLAPKIRAEQISPFFPLVSAHLSSAMTHITEGIQEDSLKVLDILLEQYPALITGRSSILLKNFVELISHQQLSKGLINRDRSQSWILSVNPNRRLTSQQWRLKVLVRLSKFLQALADGSSRLRESEGLQEQKENPHATSNSIFINWKEHANDQQHIQVYENGGSQPNVSSQFRLRYLVGGLSGVDEGLSSTENLKGFIEIIIPLLIECWVEAVPPQLATPVGNGIEREPLQVMQQVLNIISLLWKLSKQQDETHKLESWLRKNYLIDFKHHFMSRFPYVLKEITKHKRKEPNKSIKHCTVLSNNIDHLLLNLTLSDIMVSLANASTLQKDCSWIEMIRKFVTETLEDGSRLNSKQLNRLLGVSWRLMQIQPNREDTETLIKAVYTLYQQRGLILPVRTLLLKFFSKIYQTEELRSCRFRYRSKVLSRWLAGLPLQLAHLGSRNPELSTQLIDIIHTAAARANKELLKSLQATALRIYDPQEGAVVVLPADSQQRLVQLVYFLPSLPADLLSRLSRCCIMGRLSSSLAAMLIGILHMRSSFSGWKYSAKDWLMSDVDYFSFLFSTLTGFSKEELTWLQSLRGVPHVIQTQLSPVLLYLTDLDQFLHHWDVTEAVFHSLLVIPARSQNFDILQSAISKHLVGLTVIPDSTAGCVFGVICKLLDHTCVVSETLLPFLASCCYSLLYFLLTIEKGEAEHLRKRDKLWGVCVSILALLPRVLRLMLQSLRVNRVGPEELPVVGQLLRLLLQHAPLRTHMLTNAILVQQIIKNITTLKSGSVQEQWLTDLHYCFNVYITGHPQGPSALATVY
binds: all assays above
